Several values for one entry are separate records, joined by “and”; a condition that tells them apart may be missing. Equal values may be shown once. Activity calls are given as the source filed them. Unless noted, calls come from the whole dose curve; as a rule, active = well fitted curve in the direction sought with a large enough effect in the repeat runs; inconclusive = weak or mixed curves; inactive = no such curve, though single readings can be large; an effect the other way counts as inactive or inconclusive.
Experiments:
[1] = qHTS assay for identifying genotoxic compounds that show differential cytotoxicity against isogenic chicken DT40 cell lines with known DNA damage response pathways - wild type cell line (AID 743012); conditions: DT40 wild type chicken cells viability, CellTiter-Glo, 40 h; activity change, negative = cytotoxicity: at 68.4 µM (top of the series) unless noted; note: potency is the fitted concentration of half-maximal effect; nearly all actives have a fitted effect of over 60% in size
Summary of the method: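 Cytotoxicity in repair-proficient parental chicken DT40 cells serves as the comparator for Rad54/Ku70- and Rev3-deficient lines. Cells were exposed to compounds for 40 h at 37 C/5% CO2, and ATP-based luminescence (CellTiter-Glo) measured viability.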

[2] = qHTS assay for identifying genotoxic compounds that show differential cytotoxicity against isogenic chicken DT40 cell lines with known DNA damage response pathways - Rev3 mutant cell line (AID 743014); conditions: chicken DT40 Rev3-/- viability, CellTiter-Glo, 40 h; activity, negative = cytotoxicity: at 68.4 µM (top of the series) unless noted; note: nearly all actives have a fitted effect of over 55% in size; note: potency is the fitted concentration of half-maximal effect; for activity, negative = cytotoxicity: % is set by controls: 0 for no effect and ±100 for the full control effect
[3] = qHTS assay for identifying genotoxic compounds that show differential cytotoxicity against isogenic chicken DT40 cell lines with known DNA damage response pathways - Rad54/Ku70 mutant cell line (AID 743015); conditions: DT40 Rad54/Ku70 mutant viability, CellTiter-Glo, 40 h; activity change, negative = cytotoxicity: at 66.8 µM (top of the series); note: nearly all actives have a fitted effect of over 60% in size; note: potency is the fitted concentration of half-maximal effect
[4] = qHTS assay to identify small molecule antagonists of the androgen receptor (AR) signaling pathway - cell viability counter screen (AID 743033; note: nearly all actives have a fitted effect of over 45% in size; note: potency is the fitted concentration of half-maximal effect); conditions: AR-bla HEK293 viability, CellTiter-Glo luminescence, 16 h; activity change, negative = cytotoxicity: at 58.5 µM (top of the series)
[5] = qHTS assay to identify small molecule antagonists of the androgen receptor (AR) signaling pathway using the MDA cell line - cell viability counter screen (AID 743041; note: potency is the fitted concentration of half-maximal effect; nearly all actives have a fitted effect of over 45% in size); conditions: MDA-kb2 viability, CellTiter-Fluor, 16 h, cells co-treated with R1881 androgen agonist; viability change, negative = cytotoxic: at 70.3 µM (top of the series) unless noted
Summary of the method: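 Using the breast carcinoma line MDA-kb2 AR-luc, test chemicals were co-incubated with R1881 for 16 h; CellTiter-Fluor reagent, added at 15.5 h, provided a fluorescence measure of live cells.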

[6] = qHTS assay to identify small molecule antagonists of the thyroid receptor (TR) signaling pathway - cell viability counter screen (AID 743064); conditions: GH3.TRE-Luc viability, CellTiter-Fluor, 24 h; activity change, negative = cytotoxic: at 70.3 µM (top of the series) unless noted; note: nearly all actives have a fitted effect of over 50% in size; note: potency is the fitted concentration of half-maximal effect
Summary of the method: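 Same-well viability check: GH3.TRE-Luc cells stimulated with 1 nM T3 alongside test compound for 23.5 h, followed by CellTiter-Fluor fluorescence.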

[7] = qHTS assay to identify small molecule antagonists of the thyroid receptor (TR) signaling pathway (AID 743065); note: potency is the fitted concentration of half-maximal effect; nearly all actives have a fitted effect of over 55% in size
Summary of the method: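 Antagonism measured as loss of luciferase signal in GH3 cells stably carrying a TRE-luciferase reporter, co-treated with compound and T3 (1 nM final) for 23.5 h at 37 C. Viability was read in the same well by CellTiter-Fluor.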

[8] = qHTS assay to identify small molecule antagonists of the estrogen receptor alpha (ER-alpha) signaling pathway - cell viability counter screen (AID 743074; calls by dose curve; note: potency is the fitted concentration of half-maximal effect; nearly all actives have a fitted effect of over 45% in size)
[9] = qHTS assay to identify small molecule antagonists of the estrogen receptor alpha (ER-alpha) signaling pathway using the BG1 cell line - cell viability counter screen (AID 743081);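 note: compound given together with 17beta-estradiol as the ER stimulus; nearly all actives have a fitted effect of over 45% in size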; note: potency is the fitted concentration of half-maximal effect
Aromatase (Homo sapiens) = Aromatase (Homo sapiens) (UniProt P11511); test: qHTS assay to identify aromatase inhibitors (AID 743083); note: nearly all actives have a fitted effect of over 55% in size; note: potency is the fitted concentration of half-maximal effect; for activity, negative = inhibition: % is set by controls: 0 for no effect and ±100 for the full control effect
Sequence of UniProt P11511 (P11511 whole entry, looked up): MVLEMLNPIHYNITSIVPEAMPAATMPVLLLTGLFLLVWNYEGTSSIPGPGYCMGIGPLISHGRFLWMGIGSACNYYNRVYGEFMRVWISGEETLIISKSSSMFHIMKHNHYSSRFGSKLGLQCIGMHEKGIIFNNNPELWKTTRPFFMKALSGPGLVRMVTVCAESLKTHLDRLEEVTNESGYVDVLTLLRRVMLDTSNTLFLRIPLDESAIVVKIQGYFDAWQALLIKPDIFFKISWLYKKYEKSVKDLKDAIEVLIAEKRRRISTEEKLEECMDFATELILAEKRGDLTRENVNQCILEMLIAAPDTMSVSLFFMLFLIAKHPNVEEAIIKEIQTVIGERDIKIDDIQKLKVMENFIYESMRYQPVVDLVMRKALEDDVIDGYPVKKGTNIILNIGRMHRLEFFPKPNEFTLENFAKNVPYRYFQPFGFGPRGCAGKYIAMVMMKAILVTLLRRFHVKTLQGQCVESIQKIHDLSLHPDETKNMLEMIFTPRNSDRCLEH

[10] = qHTS assay to identify aromatase inhibitors - cell viability counter screen (AID 743084); conditions: MCF-7 aro ERE viability, CellTiter-Fluor, 24 h; activity change, negative = cytotoxicity: at 70.3 µM (top of the series);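 note: cells stimulated with testosterone during compound exposure; potency is the fitted concentration of half-maximal effect; nearly all actives have a fitted effect of over 55% in size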
[11] = biological target: Estrogen receptor (Homo sapiens) (UniProt P03372); test: qHTS assay to identify small molecule antagonists of the estrogen receptor alpha (ER-alpha) signaling pathway (AID 743069; active = well fitted curve in the direction sought with a large enough effect in the signal ratio in the repeat runs, not every such curve was filed as active; inconclusive = weak or mixed curves, or effect the other way; inactive = no such curve, though single readings can be large or run the other way; the % refers to the signal ratio; note: potency is the fitted concentration of half-maximal effect); conditions: HEK293 ER-alpha-UAS-bla, beta-lactamase ratio, antagonist mode; activity, negative = inhibition: at 69.4 µM (top of the series) unless noted
Sequence of UniProt P03372 (P03372 whole entry, looked up): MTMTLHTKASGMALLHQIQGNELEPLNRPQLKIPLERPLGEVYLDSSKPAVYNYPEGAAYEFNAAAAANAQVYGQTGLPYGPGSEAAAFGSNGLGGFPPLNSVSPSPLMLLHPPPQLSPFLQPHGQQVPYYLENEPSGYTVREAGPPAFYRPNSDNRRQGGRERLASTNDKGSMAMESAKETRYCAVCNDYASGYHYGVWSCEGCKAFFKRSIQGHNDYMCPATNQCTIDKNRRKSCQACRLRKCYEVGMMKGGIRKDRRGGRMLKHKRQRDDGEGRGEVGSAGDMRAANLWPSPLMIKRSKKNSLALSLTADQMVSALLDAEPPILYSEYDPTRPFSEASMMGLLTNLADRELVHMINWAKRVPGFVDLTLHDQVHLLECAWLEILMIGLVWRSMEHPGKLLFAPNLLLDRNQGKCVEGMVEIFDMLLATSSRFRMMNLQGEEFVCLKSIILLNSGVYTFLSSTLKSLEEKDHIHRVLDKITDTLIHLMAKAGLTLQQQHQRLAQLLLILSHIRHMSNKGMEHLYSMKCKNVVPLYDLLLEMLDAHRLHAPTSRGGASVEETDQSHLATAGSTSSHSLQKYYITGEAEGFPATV
Summary of the method: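 Fluorescence intensity from a beta-lactamase FRET substrate served as the read-out. Cells: HEK293 with stably integrated ER-alpha-UAS-bla reporter. Agonist 17beta-estradiol was co-added with compounds; incubation 18 hr at 37C, substrate 2 hr at room temperature.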

[12] = biological target: Estrogen receptor (Homo sapiens) (UniProt P03372); test: qHTS assay to identify small molecule agonists of the estrogen receptor alpha (ER-alpha) signaling pathway (AID 743075; calls by dose curve; note: potency is the fitted concentration of half-maximal effect)
[13] = biological target: Estrogen receptor (Homo sapiens) (UniProt P03372); test: qHTS assay to identify small molecule agonists of the estrogen receptor alpha (ER-alpha) signaling pathway using the BG1 cell line (AID 743079); conditions: BG1Luc4E2 cells, ERE-luciferase agonist, 22 h; activation: at 70.3 µM (top of the series) unless noted; note: potency is the fitted concentration of half-maximal effect; nearly all actives have a fitted effect of over 20% in size
[14] = biological target: Androgen receptor (Homo sapiens) (UniProt P10275); test: qHTS assay to identify small molecule antagonists of the androgen receptor (AR) signaling pathway (AID 743035; active = well fitted inhibition curve with a large enough effect in the signal ratio in the repeat runs, not every such curve was filed as active; inconclusive = weak or mixed curves, or effect the other way; inactive = no such curve, though single readings can be large or run the other way; the % refers to the signal ratio; note: % is set by controls: 0 for no effect and ±100 for the full control effect); conditions: HEK293 AR-UAS-bla, R1881-stimulated, beta-lactamase FRET, 16 h; activity change, negative = inhibition: at 58.5 µM (top of the series) unless noted
Sequence of UniProt P10275 (P10275 whole entry, looked up): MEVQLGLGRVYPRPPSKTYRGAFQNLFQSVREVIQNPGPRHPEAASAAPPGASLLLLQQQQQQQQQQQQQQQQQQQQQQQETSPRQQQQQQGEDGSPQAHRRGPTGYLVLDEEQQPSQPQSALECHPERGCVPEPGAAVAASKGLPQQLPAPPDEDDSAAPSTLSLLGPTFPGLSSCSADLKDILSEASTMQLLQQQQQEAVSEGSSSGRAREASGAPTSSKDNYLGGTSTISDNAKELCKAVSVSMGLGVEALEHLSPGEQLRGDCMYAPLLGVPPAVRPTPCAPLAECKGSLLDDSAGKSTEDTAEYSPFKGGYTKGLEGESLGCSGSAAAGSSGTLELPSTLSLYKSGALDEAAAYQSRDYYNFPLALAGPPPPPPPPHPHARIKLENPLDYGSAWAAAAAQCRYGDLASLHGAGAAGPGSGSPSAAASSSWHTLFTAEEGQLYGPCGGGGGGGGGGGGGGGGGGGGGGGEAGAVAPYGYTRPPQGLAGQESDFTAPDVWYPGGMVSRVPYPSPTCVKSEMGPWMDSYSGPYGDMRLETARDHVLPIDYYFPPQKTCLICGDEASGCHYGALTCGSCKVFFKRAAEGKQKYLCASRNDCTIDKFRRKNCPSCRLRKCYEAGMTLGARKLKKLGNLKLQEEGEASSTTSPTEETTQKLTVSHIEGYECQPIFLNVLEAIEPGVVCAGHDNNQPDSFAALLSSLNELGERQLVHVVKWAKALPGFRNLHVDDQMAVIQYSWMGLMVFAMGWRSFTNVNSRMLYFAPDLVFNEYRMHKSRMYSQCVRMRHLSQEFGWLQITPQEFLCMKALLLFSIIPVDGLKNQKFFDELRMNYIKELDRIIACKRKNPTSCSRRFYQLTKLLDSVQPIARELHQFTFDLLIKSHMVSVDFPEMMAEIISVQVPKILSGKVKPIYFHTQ
Summary of the method: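 Steps: seed AR-UAS-bla GripTite HEK293 cells, incubate 4 h at 37C; pin in test compound, then add agonist R1881; incubate 16 h at 37C; add LiveBLAzer B/G FRET substrate, 2 h at room temperature; read fluorescence.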

[15] = biological target: Androgen receptor (Homo sapiens) (UniProt P10275); test: qHTS assay to identify small molecule agonists of the androgen receptor (AR) signaling pathway (AID 743036; active = well fitted activation curve with a large enough effect in the signal ratio in the repeat runs, with a control signal flat, not every such curve was filed as active; inconclusive = weak or mixed curves, or effect the other way; inactive = no such curve, though single readings can be large or run the other way; the % refers to the signal ratio; note: % is set by controls: 0 for no effect and ±100 for the full control effect); conditions: HEK293 AR-UAS-bla GripTite, beta-lactamase FRET ratio, 16 h; activation: at 62.4 µM (top of the series) unless noted
Summary of the method: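 Agonist activity was scored by beta-lactamase reporter fluorescence in stably transfected HEK293 cells exposed to compounds for 16 h at 37C and 5% CO2. Substrate loading took 2 h at room temperature.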

[16] = biological target: Androgen receptor (Homo sapiens) (UniProt P10275); test: qHTS assay to identify small molecule antagonists of the androgen receptor (AR) signaling pathway using the MDA cell line (AID 743042)
Summary of the method: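 Antagonist mode: compounds plus R1881 agonist added to MDA-kb2 AR-luc cells, incubated 16 h at 37C. Luciferase reporter luminescence quantified, with multiplexed CellTiter-Fluor readout for cell viability.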
Tags give direction and shape of the fitted curve or compound fluorescence and quenching.

Q: For Nc1ccc2c(O)cc(S(=O)(=O)O)cc2c1, which Potency [1] is on record?
A: The Potency was inconclusive: 43.3 µM [cytotoxic, partial curve, poor fit].

Q: And the Potency [2]?
A: Its Potency is inconclusive: 68.7 µM [cytotoxic, single point] and inconclusive: 38.6 µM [cytotoxic, partial curve].

Q: What about the Potency [3] of the same compound?
A: Its Potency is inconclusive: 68.7 µM [cytotoxic, single point].

Q: And the Potency [4]?
A: The Potency was inconclusive: 13.8 µM [cytotoxic, partial curve, poor fit].

Q: What about the Potency [5] of the same compound?
A: The Potency was inconclusive: 48.6 µM [cytotoxic, partial curve] and inconclusive: 68.6 µM [cytotoxic].

Q: And the Potency [6]?
A: The Potency was inconclusive: 48.6 µM [cytotoxic, partial curve].

Q: And the Potency [7]?
A: The Potency was inconclusive: 54.5 µM [inhibitor, partial curve, poor fit].

Q: What about the Potency [8] of the same compound?
A: The Potency was inconclusive: 19.5 µM [rising, partial curve, poor fit].

Q: And the Potency [9]?
A: Its Potency is inconclusive: 61.1 µM [cytotoxic, partial curve, poor fit].

Q: And the Potency (Aromatase (Homo sapiens))?
A: The Potency was “inactive”.

Q: What about the Potency [10] of the same compound?
A: Its Potency is inconclusive: 30.7 µM [cytotoxic, partial curve].

Q: With Oc1ccc(Cc2ccccc2O)cc1 as the compound, how does the Potency [1] read?
A: Its Potency is inconclusive: 24.6 µM.

Q: What about the Potency [2] of the same compound?
A: Its Potency is inconclusive: 69.4 µM [cytotoxic].

Q: And the Potency [3]?
A: The Potency was inconclusive: 69.4 µM [cytotoxic, single point].

Q: And the Potency [6]?
A: Its Potency is inconclusive: 68.6 µM [cytotoxic, single point].

Q: What about the Potency [7] of the same compound?
A: Its Potency is inconclusive: 61.9 µM [inhibitor] and inconclusive: 68.6 µM [inhibitor, single point].

Q: What about the Potency [11] of the same compound?
A: The Potency was inconclusive: 55.6 µM and inconclusive: 19.5 µM [activator, partial curve].

Q: What about the Potency [8] of the same compound?
A: The Potency was inconclusive: 62.4 µM [cytotoxic, partial curve, poor fit].

Q: And the Potency [12]?
A: Its Potency is active: 11.1 µM [inconclusive] and active: 24.5 µM [inconclusive].

Q: And the Potency [13]?
A: The Potency was active: 9.81 µM and active: 6.11 µM.

Q: What about the Potency [10] of the same compound?
A: The Potency was inconclusive: 77 µM [rising, partial curve, poor fit].

Q: Which Potency [1] does the source give for COC1=CC(=O)C[C@@H](C)[C@]12Oc1c(Cl)c(OC)cc(OC)c1C2=O here?
A: The Potency was active: 26.6 µM and active: 54 µM and active: 27.3 µM.

Q: What about the Potency [2] of the same compound?
A: The Potency was inconclusive: 33.5 µM [cytotoxic, single point].

Q: And the Potency [3]?
A: The Potency was inconclusive: 33.5 µM [cytotoxic, single point].

Q: What about the Potency [4] of the same compound?
A: The Potency was inconclusive: 12.2 µM [cytotoxic, partial curve, poor fit].

Q: And the Potency [6]?
A: Its Potency is inconclusive: 16.8 µM [cytotoxic, partial curve, poor fit] and inconclusive: 24.1 µM [cytotoxic, partial curve, poor fit] and inconclusive: 68.6 µM [cytotoxic, partial curve].

Q: What about the Potency [7] of the same compound?
A: Its Potency is active: 11.9 µM and active: 27.1 µM and active: 27.3 µM.

Q: What about the Potency [11] of the same compound?
A: Its Potency is active: 10.7 µM [inconclusive] and active: 5.45 µM [inconclusive] and active: 6.92 µM [inhibitor].

Q: And the Potency (Aromatase (Homo sapiens))?
A: Its Potency is inconclusive: 37.6 µM [inhibitor, partial curve, poor fit] and inconclusive: 19.2 µM [inhibitor, partial curve] and inconclusive: 19.3 µM [inhibitor, partial curve].

Q: What does the source list for CCCNCCC?
A: Potency [1]: inconclusive: 17.3 µM [rising, single point]; Potency [2]: inactive; Potency [3]: inactive; Potency [4]: inactive; Potency [8]: inconclusive: 24.6 µM [rising, full curve]; Potency [9]: inactive

Q: With CC(CCl)OP(=O)(OC(C)CCl)OC(C)CCl (centres undefined) as the compound, how does the Potency [1] read?
A: The Potency was inconclusive: 68.7 µM [cytotoxic, single point].

Q: What about the Potency [2] of the same compound?
A: Its Potency is inconclusive: 61.3 µM [cytotoxic, single point].

Q: And the Potency [3]?
A: Its Potency is inconclusive: 68.7 µM [cytotoxic, single point].

Q: What about the Potency [5] of the same compound?
A: The Potency was inconclusive: 19.4 µM [rising, full curve, poor fit].

Q: And the Potency [6]?
A: Its Potency is inconclusive: 2.74 µM [rising, single point] and inconclusive: 2.57 µM [rising, single point].

Q: Which results are given for CCCCC/C=C\C/C=C\CCCCCCCC(=O)OC?
A: Potency [1]: inconclusive: 8.54 µM [rising, single point]; Potency [2]: inconclusive: 24.1 µM [cytotoxic, single point]; Potency [3]: inconclusive: 24.1 µM [cytotoxic, single point] and active: 21.7 µM; Potency [6]: inconclusive: 68.6 µM [cytotoxic, single point]; Potency [11]: inconclusive: 49 µM [fluorescent]; Potency [8]: inconclusive: 49 µM [cytotoxic, single point]; Potency [9]: inactive; Potency [10]: inconclusive: 68.6 µM [cytotoxic, single point]

Q: For COC(=O)CCc1ccc(OCC(O)CNC(C)C)cc1 (centres undefined), which Potency [1] is on record?
A: The Potency was inconclusive: 33.5 µM [cytotoxic, partial curve, poor fit].

Q: What about the Potency [2] of the same compound?
A: Its Potency is inconclusive: 23.7 µM [cytotoxic, partial curve].

Q: And the Potency [3]?
A: The Potency was inconclusive: 33.5 µM [cytotoxic, partial curve, poor fit].

Q: What about the Potency [6] of the same compound?
A: The Potency was “inactive”.

Q: Which Potency [1] does the source give for Nc1cc(-c2ccncc2)c[nH]c1=O here?
A: Its Potency is inconclusive: 24.3 µM [rising, partial curve, poor fit].

Q: What about the Potency [2] of the same compound?
A: The Potency was inconclusive: 26.6 µM [rising, partial curve, poor fit].

Q: What about the Potency [3] of the same compound?
A: The Potency was “inactive”.

Q: And the activity change, negative = inhibition [14]?
A: The activity change, negative = inhibition was inconclusive: 14.3%.

Q: What about the Potency [15] of the same compound?
A: Its Potency is “inactive”.

Q: What about the Potency [16] of the same compound?
A: The Potency was inconclusive: 26.6 µM [inhibitor, single point].

Q: What about the Potency [6] of the same compound?
A: The Potency was inconclusive: 29.8 µM [rising, partial curve, poor fit].

Reference: PubChem BioAssay (Tox21)
